Details in all cases: priming compound concentration 100 µM
Test [1] has as its system hAMSC donor 1. Kind of test: Hoechst total cell count ratio vs vehicle control; higher = more cells (less toxicity).
For test [2], the system named is hAMSC donor 2. The description is as above.
For test [3], the system named is hAMSC donor 1. Kind of test: transgenic luciferase activity (RLU/mg protein) fold change vs vehicle control (ratio); higher = more transgene expression.
For test [4], the system named is hAMSC donor 2. Described as above.
For test [5], the system named is hAMSC donor 1. Description: transfection efficiency (EGFP+ cells / Hoechst count) fold change vs vehicle control (ratio); hAMSC are human adipose-derived mesenchymal stem cells given an EGFP-luciferase plasmid by lipofection; higher = enhanced transfection.
For test [6], the system named is hAMSC donor 2. Described as above.

Structures can show the parent of a compound that is named as a salt. ± gives the standard deviation of the averaged measurements. Some of the results follow.
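For Hoechst total cell count ratio vs vehicle control in this document: compound added 30 min before Lipofectamine 3000 lipoplex delivery, triplicate-well means expressed against DMSO vehicle control wells of the same 96-well plate.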
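For transfection efficiency (EGFP+ cells / Hoechst count) fold change vs vehicle control in this document: compounds added 30 min before Lipofectamine 3000 lipoplex transfection, triplicate means relative to DMSO vehicle wells on the same plate, luciferase RLU normalized to BCA total protein.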
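For transgenic luciferase activity (RLU/mg protein) fold change vs vehicle control in this document: compounds in DMSO added 30 min before Lipofectamine 3000 transfection of pEGFP-Luc in 96-well plates, values are means of triplicate wells over DMSO vehicle wells on the same plate.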

With `NC(N)=Nc1nc(CSCC/C(N)=N/S(N)(=O)=O)cs1` [Famotidine], the “Hoechst total cell count ratio” value in test [1] stood at 0.905 ± 0.095; in test [2], 1.09 ± 0.051. Further, the transgenic luciferase activity turned out to be 0.625 ± 0.24 in test [3] and 1.04 ± 0.16 in test [4]. In addition, the results for the transfection efficiency in test [5] and in test [6] were 1.77 ± 0.87 and 1.84 ± 0.17, respectively.
In the case of `Clc1cccc(Cl)c1NC1=NCCN1` [Clonidine hydrochloride], the “Hoechst total cell count ratio” value in test [1] was found to be 1.25 ± 0.076; in test [2], 1.05 ± 0.076. Further, the transgenic luciferase activity in test [3] was 2.23 ± 0.46; in test [4] it was 1.74 ± 0.61. The values for the transfection efficiency in test [5] and in test [6] were 1.63 ± 0.42 and 1.37 ± 0.22, respectively.
For `CC(C)(C)NCC(O)c1cc(O)cc(O)c1` (centres undefined) [Terbutaline sulfate], the “Hoechst total cell count ratio” value in test [1] turned out to be 1.08 ± 0.11; in test [2], 1.61 ± 0.1. Also, the figures for the transgenic luciferase activity in test [3] and in test [4] were 0.436 ± 0.49 and 0.807 ± 0.13, respectively. Also, the transfection efficiency in test [5] amounted to 0.984 ± 0.31; in test [6], 0.885 ± 0.12.
Consider `CCS(=O)(=O)CCn1c([N+](=O)[O-])cnc1C` [Tinidazole], for which the “Hoechst total cell count ratio” value in test [1] turned out to be 1.66 ± 0.068; in test [2], 1.06 ± 0.086. The transgenic luciferase activity turned out to be 0.312 ± 0.19 in test [3] and 0.503 ± 0.064 in test [4]. The transfection efficiency in test [5] was found to be 0.906 ± 0.31; in test [6], 1.17 ± 0.12.
As for `CCC(C)n1ncn(-c2ccc(N3CCN(c4ccc(OCC5COC(Cn6cncn6)(c6ccc(Cl)cc6Cl)O5)cc4)CC3)cc2)c1=O` (centres undefined) [Itraconazole], the results for the “Hoechst total cell count ratio” value in test [1] and in test [2] were 0.66 ± 0.099 and 0.603 ± 0.05, respectively. Also, the transgenic luciferase activity is 0.106 ± 0.086 in test [3] and 0.967 ± 0.63 in test [4]. Further, the transfection efficiency came to 1.88 ± 0.49 in test [5] and 1.51 ± 0.19 in test [6].
With `C#C[C@]1(OC(C)=O)CC[C@H]2[C@@H]3CCC4=CC(=O)CC[C@@H]4[C@H]3CC[C@@]21C` [19-Norethindrone acetate], the “Hoechst total cell count ratio” value came to 1.34 ± 0.04 in test [1] and 1.38 ± 0.14 in test [2]. The transgenic luciferase activity in test [3] is 1.26 ± 0.42; in test [4], 0.671 ± 0.1. The transfection efficiency in test [5] was determined as 0.578 ± 0.23; in test [6], 0.713 ± 0.19.
For the molecule `Cc1cccc(CN2CCN(C(c3ccccc3)c3ccc(Cl)cc3)CC2)c1` (centres undefined) [Meclizine hydrochloride], the “Hoechst total cell count ratio” value stood at 1.44 ± 0.2 in test [1] and 1.11 ± 0.12 in test [2]. The transgenic luciferase activity in test [3] worked out at 0.052 ± 0.047; in test [4], 0.0589 ± 0.021. The transfection efficiency is 0.527 ± 0.098 in test [5] and 0.381 ± 0.11 in test [6].
Consider `NC(=O)N1c2ccccc2C=Cc2ccccc21` [Carbamazepine], for which the “Hoechst total cell count ratio” value in test [1] is 0.964 ± 0.32; in test [2], 1.27 ± 0.23. Further, the values for the transgenic luciferase activity in test [3] and in test [4] were 0.393 ± 0.079 and 0.645 ± 0.047, respectively. The transfection efficiency came out at 1.21 ± 0.15 in test [5] and 1.06 ± 0.12 in test [6].
On to `Cc1c(O)c(=O)ccn1C` [Deferiprone], for which the “Hoechst total cell count ratio” value in test [1] came to 1.22 ± 0.19; in test [2], 1.69 ± 0.2. The transgenic luciferase activity in test [3] was determined as 0.88 ± 0.43; in test [4], 0.697 ± 0.085. In addition, the transfection efficiency stood at 0.924 ± 0.16 in test [5] and 0.678 ± 0.0084 in test [6].
As to `CN1CCN(c2nc3cc(C(F)(F)F)ccc3n3cccc23)CC1`, the “Hoechst total cell count ratio” value in test [1] worked out at 0.477 ± 0.083; in test [2], 0.244 ± 0.04. Further, the transgenic luciferase activity in test [3] is 0.229 ± 0.044; in test [4], 0.0241 ± 0.014. For the same molecule, the transfection efficiency in test [5] stood at 1.13 ± 0.68; in test [6], 0.7 ± 0.17.
Consider `CCOC(=O)[C@H](CCc1ccccc1)N[C@@H](C)C(=O)N1[C@H](C(=O)O)C[C@@H]2CCC[C@@H]21` [Ramipril], for which the “Hoechst total cell count ratio” value is 1.55 ± 0.14 in test [1] and 1.56 ± 0.26 in test [2]. Also, the transgenic luciferase activity in test [3] was 0.534 ± 0.22; in test [4], 0.635 ± 0.13. For the same molecule, the transfection efficiency in test [5] came to 0.709 ± 0.28; in test [6], 0.747 ± 0.23.
As to `Cc1onc(-c2ccccc2)c1-c1ccc(S(N)(=O)=O)cc1` [Valdecoxib], the “Hoechst total cell count ratio” value in test [1] is 1.28 ± 0.2; in test [2], 1.26 ± 0.33. The transgenic luciferase activity in test [3] is 1.23 ± 0.3; in test [4], 0.224 ± 0.044. For the same molecule, the figures for the transfection efficiency in test [5] and in test [6] were 0.841 ± 0.084 and 1.05 ± 0.21, respectively.
On to `COc1cc(-c2ccc(=O)[nH]n2)ccc1OC(F)F` [Zardaverine], for which the “Hoechst total cell count ratio” value in test [1] worked out at 0.996 ± 0.038; in test [2], 1.19 ± 0.34. The transgenic luciferase activity is 1.06 ± 0.039 in test [3] and 0.443 ± 0.21 in test [4]. Also, the transfection efficiency in test [5] was found to be 0.905 ± 0.27; in test [6], 1.59 ± 0.22.
As to `CCC1=C[C@@H]2CN(C1)Cc1c([nH]c3ccccc13)[C@@](C(=O)OC)(c1cc3c(cc1OC)N(C)[C@H]1[C@@](O)(C(=O)OC)[C@H](OC(C)=O)[C@]4(CC)C=CCN5CC[C@]31[C@@H]54)C2` [Vinorelbine tartrate], the “Hoechst total cell count ratio” value in test [1] is 1.3 ± 0.042; in test [2], 0.421 ± 0.021. Further, the transgenic luciferase activity in test [3] came to 0.354 ± 0.13; in test [4], 0.473 ± 0.17. Also, the transfection efficiency in test [5] is 0.403 ± 0.03; in test [6] it was 0.433 ± 0.088.
Consider `CC(=O)OCC(=O)[C@@]1(O)CC[C@H]2[C@@H]3CCC4=CC(=O)C=C[C@]4(C)[C@H]3[C@@H](O)C[C@@]21C` [Prednisolone acetate], for which the “Hoechst total cell count ratio” value in test [1] was found to be 1.57 ± 0.25; in test [2], 1.87 ± 0.13. In addition, the transgenic luciferase activity came out at 3.17 ± 1.9 in test [3] and 0.593 ± 0.19 in test [4]. Besides, the transfection efficiency was 1.62 ± 0.36 in test [5] and 1.32 ± 0.14 in test [6].
In the case of `CO[C@H]1/C=C/O[C@@]2(C)Oc3c(C)c(O)c4c(O)c(c5c(nc6cc(C)ccn65)c4c3C2=O)NC(=O)/C(C)=C\C=C\[C@H](C)[C@H](O)[C@@H](C)[C@@H](O)[C@@H](C)[C@H](OC(C)=O)[C@@H]1C` [Rifaximin], the “Hoechst total cell count ratio” value in test [1] came out at 0.964 ± 0.15; in test [2], 0.873 ± 0.12. The transgenic luciferase activity in test [3] is 1.52 ± 0.3; in test [4], 1.46 ± 0.17. The transfection efficiency in test [5] was 0.795 ± 0.16; in test [6], 0.988 ± 0.1.
Consider `CC(CCc1ccccc1)NCC(O)c1ccc(O)c(C(N)=O)c1` (centres undefined) [Labetalol hydrochloride], for which the “Hoechst total cell count ratio” value in test [1] came to 1.23 ± 0.17; in test [2], 1.64 ± 0.21. Moreover, the transgenic luciferase activity in test [3] amounted to 1.28 ± 0.099; in test [4], 0.608 ± 0.076. Also, the transfection efficiency in test [5] came out at 1.04 ± 0.46; in test [6] it was 0.791 ± 0.11.
For `O=C(c1ccc(OCCN2CCCCC2)cc1)c1c(-c2ccc(O)cc2)sc2cc(O)ccc12` [Raloxifene hydrochloride], the “Hoechst total cell count ratio” value in test [1] was found to be 0.407 ± 0.059; in test [2], 0.598 ± 0.029. Further, the transgenic luciferase activity in test [3] came out at 2.32 ± 0.64; in test [4] it was 0.192 ± 0.061. The transfection efficiency in test [5] was 2.4 ± 0.69; in test [6], 0.539 ± 0.095.
For `NNCCc1ccccc1` [Phenelzine sulfate], the figures for the “Hoechst total cell count ratio” value in test [1] and in test [2] were 1.28 ± 0.088 and 0.957 ± 0.077, respectively. Further, the transgenic luciferase activity turned out to be 2.01 ± 1 in test [3] and 2.62 ± 1.1 in test [4]. The transfection efficiency in test [5] turned out to be 1.35 ± 0.44; in test [6], 1.25 ± 0.17.

(Values after the supplement of paper PMC7238544.)
